Hit rate of the full screen: of about 46,000 compounds, about 60 (0.1%) were called active. Roughly 3% stayed inconclusive and do not appear here. Calls come from the whole dose curve; as a rule, active = well fitted inhibition curve with a large enough effect; inconclusive = small, poorly fitted or top-dose-only effect; inactive = no such curve, though single readings can be large or run the other way. The list shows a part of the results.
assay: Primary qHTS assay for Inhibitors of ovarian cancer metastasis using an organotypic tumor microenvironment (TME) model.; note: nearly all actives have a fitted effect of over 65% in size;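 for activity change, negative = inhibition: plate controls were DMSO wells for no effect and tomatine positive control wells for full effect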; conditions: SKOV3ip1-GFP adhesion/invasion on 3D omental model, fluorescence; series mostly up to 45.8 µM; activity change, negative = inhibition: at the top concentration
In short: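 Primary human omental fibroblast/mesothelial 3D culture pre-formed 48 h. SKOV3ip1-GFP cells added with compounds (0.36-46 umol/L), incubated 2 h RT/16 h 37 C, fixed; GFP cells quantified at 488/509 nm.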

Activity change, negative = inhibition, inactive:
Cc1ccc(N2C(=O)c3[nH]nc(-c4ccc(Cl)cc4)c3C2c2ccc(F)cc2)cc1 (stereo unspecified) -21.9%
COc1ccc(CNC(=O)c2cccc(-n3cnc4cccnc43)c2C)cc1 6.37%
COc1cc(OC)cc(C(=O)NCC(c2cccs2)S(=O)(=O)c2ccc(F)c(C)c2)c1 (stereo unspecified) -4.45%
CCC(C)NC(=O)c1ccc2nc(Cc3ccc(OC)cc3)oc2c1 (stereo unspecified) 2.64%
NS(=O)(=O)c1ccc(NC(=O)c2ccc3c(c2)CCN3S(=O)(=O)c2ccccc2)cc1 6.46%
Cc1ccc(N(CC(=O)Nc2cc(C)cc(C)c2)S(=O)(=O)c2cccc3nonc23)cc1 0.132%
Cc1cc(C)cc(NC(=O)Cn2c(=O)c3ccccc3n3nncc23)c1 4.87%
CCc1ccc(CNC(=O)CN2C(=O)c3cccnc3Oc3ccc(C)cc32)cc1 2.03%
CCOC(=O)c1ccccc1NC(=O)c1sc2nc3n(c(=O)c2c1C)CCCC3 5.93%
Cc1c(C)n(C)c2ccc(C(=O)N3CCN(c4ccccc4)CC3)cc12 -3.33%
Cc1c(Cl)cccc1NC(=O)C(C)n1nnc2sc3c(c2c1=O)CCCC3 (stereo unspecified) -15%
CSc1ncc(Cl)c(C(=O)N(Cc2ccc(N(C)C)cc2)Cc2ccco2)n1 0.627%
CC(CC(=O)Nc1ccc(Br)cc1F)S(=O)(=O)c1ccc2c(c1)NC(=O)CO2 (stereo unspecified) -3.19%
CCc1ccc(Cc2cnc(NC(=O)c3ccc4c(c3)CC(c3ccccc3)OC4=O)s2)cc1 (stereo unspecified) -4.44%
Cc1cccc(C2CC(=O)Oc3c2c(=O)n(C)c2ccccc32)c1 (stereo unspecified) 1.88%
CCOC(=O)C1CCN(C(=O)C2CCN(C3=NS(=O)(=O)C(c4ccc(C)c(C)c4)=C3C)CC2)CC1 6.84%
Cc1ccc(CNC(=O)Cn2cc(C(=O)c3ccc(F)cc3)c(=O)c3ccc(C)nc32)cc1 3.56%
COc1ccc(CNC(=O)c2cc3c(s2)-c2ccccc2OC3)cc1 -0.146%
CCC(C)NC(=O)C(=O)Nc1c2c(nn1-c1ccccc1)CS(=O)(=O)C2 (stereo unspecified) 17.1%
CC(C)CCNC(=O)C1CCC(Cn2c(=O)c3sccc3n(CC(=O)NC(C)C)c2=O)CC1 (stereo unspecified) -19.1%
CC1CN(C(=O)CCC(=O)NCc2ccc(F)cc2)c2cc(Cl)ccc2O1 (stereo unspecified) -0.111%
COc1ccc(NC(=O)CSc2nc3c(oc4ccccc43)c(=O)n2-c2ccc(C)c(C)c2)cc1 -5.74%
COc1cc(OC)c(NC(=O)NCc2ccc3c(c2)CCN3C(=O)c2ccccc2)cc1Cl 11.5%
S=c1nc[nH]c2nc[nH]c12 3.31%
Cc1ccc(S(=O)(=O)c2nc(-c3cccc(C)c3)oc2N2CCN(c3ccccc3)CC2)cc1 -6.83%
COc1ccc2c(c1)CCc1c(C(=O)Nc3c(C)nn(Cc4ccc(Cl)c(Cl)c4)c3C)noc1-2 0.0448%
Cc1ccc(CNC(=O)c2ccc3c(=O)n(-c4ccccc4)c(=O)[nH]c3c2)cc1 2.67%
CCCSc1ncc(Cl)c(C(=O)Nc2nc3ccc(OCC)cc3s2)n1 -2.49%
COC(=O)c1sc2cccc(F)c2c1S(=O)(=O)N1CCN(c2ccc(F)cc2)CC1 -5.1%
Cc1nc2nc(SCC(=O)NCCc3ccc(Cl)cc3)nn2c(C)c1Cc1ccccc1 -3.3%
CCOC(=O)CC1c2cc(OCC)c(OCC)cc2CCN1C(=O)Nc1cccc(Cl)c1 (stereo unspecified) 3.9%
CC(=O)c1cc(C(=O)Nc2cc(C)cc(C)c2)c2ccccn12 6.01%
COC(=O)C(CCSC)NC(=O)c1cc2c(n(-c3ccc(C)cc3)c1=O)CC(C)(C)CC2=O (stereo unspecified) -12%
Cc1ccc2c(c1)cc1c(=O)n(CC(=O)NC3CCCCC3)nc(C)n12 -15.6%
CCc1ccccc1NC(=O)CSc1nc(-c2ccccc2OC)nc2c1Cc1c(CO)cnc(C)c1O2 2.32%
CCC(=O)N1c2ccc(S(=O)(=O)N3CCC(C)CC3)cc2CC1C (stereo unspecified) 3.68%
CCCCC(CC)CNC(=O)C1CCC(CNS(=O)(=O)c2cccc3nsnc23)CC1 (stereo unspecified) -2.43%
CCOC(=O)c1[nH]c(C)c(CCC(=O)NCc2ccccc2Cl)c1C -18.1%
CNC(=O)c1ccc(Nc2nnc(-c3ccc(C)c(S(=O)(=O)N(C)C)c3)c3ccccc23)cc1 0.314%
CCCc1ccc(S(=O)(=O)N2CCC(Oc3ccc(-n4cnnn4)cc3)CC2)cc1 7.14%
CCC(=O)Nc1ccc(-c2nnc3c4ccccc4c(C)nn23)cc1 1.86%
O=C(NCc1ccccc1)c1ccc2c(c1)CCN2S(=O)(=O)c1ccccc1 9.82%
Cc1cccc(C)c1-n1ncc(C(=O)N2CCN(c3ccccn3)CC2)c1C1CCN(C(=O)OC(C)(C)C)CC1 -7.48%

outcome, inactive:
CCOCCSc1c(C)cnc2c1c(=O)n(C)c(=O)n2C
COc1cccc(C(=O)Nc2ccc(-c3cn4cccnc4n3)cc2)c1OC
CCOc1ccc(NC(=O)Cn2ccn(-c3ccc(F)c(F)c3)c(=O)c2=O)cc1
COc1cc(C(=O)N2CCN(CCc3ccccn3)CC2)cc(OC)c1OC
COc1ccc(NC(=O)CSCc2cnn(-c3ccccc3)c2-n2cccc2)cc1
CCn1ccc2cc(S(=O)(=O)N3CCC(C(=O)NCCc4ccc(C)cc4)CC3)ccc21
COc1ccccc1NC(=O)CN1C(=O)C2(SCC(=O)N2c2ccc(C)c(C)c2)c2ccccc21 (stereo unspecified)
Cc1ccc2c(=O)cc(C(=O)Nc3ccc(S(=O)(=O)N4CCCCCC4)cc3)oc2c1C
CCCCOc1ccc(CNC(=O)CCCN2C(=O)CSc3c2c(C)nn3-c2ccccc2)cc1
CC(C)c1ccc(C2N=C(N)Nc3nc4ccccc4n32)cc1 (stereo unspecified)
Cc1ccc(-n2c(=O)c3oc4ccccc4c3n(Cc3ccccc3F)c2=O)cc1C
O=C(Cn1c(=O)n(-c2ccc(F)c(Cl)c2)c(=O)c2sc3ccccc3c21)NC1CCCC1
CCOc1ccc(CCNC(=O)C2COc3ccccc3C2)cc1OCC (stereo unspecified)
O=C(CN1C(=O)CCSc2ccccc21)Nc1ccccc1F
O=C(c1ccc2c(c1)N(Cc1ccc(Cl)cc1)C(=O)c1ccccc1S2(=O)=O)N1CCCCC1
Cc1cccn2c(=O)c3cc(C(=O)NCc4ccccc4)c(=N)n(CCOCCO)c3nc12
COc1ccc(CCNC(=O)CCCn2c(=O)c3ccccc3n(Cc3c(C)cc(C)cc3C)c2=O)cc1OC
Cc1ccc(NC(=O)CSc2nc(=O)n(CCCN(C)C)c3c2CCC3)cc1F

Reference: PubChem BioAssay AID1963576 (National Center for Advancing Translational Sciences (NCATS), 2024)
